Assay results from PubChem BioAssay AID1240 (Sanford-Burnham Center for Chemical Genomics, 2008).
Hit rate of the full screen: of about 50,000 compounds, about 800 (1.6%) showed an effect of 50% or more. The list shows a part of the results.

What follows are compounds tested against Bcl-2-like protein 10 (Homo sapiens) (UniProt Q9HD36) (assay: TR3 peptide-Bcl-B binding displacers, biochemical primary FP assay, phenotype converters (AID 1240;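 also: 0% = Bcl-B with tracer peptide and DMSO and 100% = tracer peptide lacking Bcl-B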)). Settings: GST-Bcl-B / FITC-TR3 peptide fluorescence polarization; stronger effect = higher value; compound at 3.75 mg/L.
Chain of UniProt Q9HD36 (Q9HD36 whole entry, looked up): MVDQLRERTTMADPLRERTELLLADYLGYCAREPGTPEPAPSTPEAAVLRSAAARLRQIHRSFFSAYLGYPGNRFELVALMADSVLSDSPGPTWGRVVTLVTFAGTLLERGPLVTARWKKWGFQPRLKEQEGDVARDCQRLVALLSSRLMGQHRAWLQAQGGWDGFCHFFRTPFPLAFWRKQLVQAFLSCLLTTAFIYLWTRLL

| Structure (SMILES) | displacement |
| --- | --- |
| CC(C)NC(=O)NCC12CC3CC(CC(C3)C1)C2 | 14% |
| Cc1ccc(S(=O)(=O)N/N=C/c2cccc(OS(=O)(=O)c3ccc(C)cc3)c2)cc1 | -0.2% |
| CCCCNC(=O)c1cc2nc(-c3ccc(OCC)cc3)cc(C)n2n1 | 3.4% |
| O=C(c1ccccc1)N1CCN(c2ccc(Cl)cc2)CC1 | 7.8% |
| COC(=O)c1ccccc1NC(=O)c1cc(-c2ccccc2)nc2ccccc12 | -2.3% |
| COc1ccc(Cl)cc1C(=O)NCCCN(C)C | -7% |
| COc1ccc(C2CC(c3ccccc3)=CC(O)(C(C)(C)C)C2C(=O)C(C)(C)C)cc1 (stereo unspecified) | 0.9% |
| CC(=O)c1ccc(-c2ccc(/C=C3/SC(=S)N(c4ccccc4)C3=O)o2)cc1 | 20.5% |
| CC1CCc2c(sc3nc(-c4ccco4)[nH]c(=O)c23)C1 (stereo unspecified) | 11% |
| O=C1NC(=O)C(=Cc2ccccc2OCCOc2ccccc2)C(=O)N1 | 11% |
| CC(=O)c1ccc(NC(=O)COc2ccc3ccccc3c2)cc1 | 3.9% |
| O=C(Nc1ccc(-c2nc3ccccc3s2)cc1)c1cc2ccccc2oc1=O | 9.2% |
| O=C(O)CCCN1C(=O)C(=O)/C(=C(/O)c2ccccc2)C1c1ccc(Cl)cc1 (stereo unspecified) | -0.2% |
| Cc1ccc(C(=O)Nc2ccc(S(=O)(=O)Nc3ncccn3)cc2)cc1[N+](=O)[O-] | 16.9% |
| COc1cccc(OC)c1OCCCOc1c(OC)cccc1OC | 14.9% |
| O=C(Nc1cccc(C(F)(F)F)c1)c1ccc(I)cc1 | 7.8% |
| CCCCOc1ccc(-c2nc(-c3ccc(C)cc3)no2)cc1 | -9.7% |
| Cc1c(C(=O)Nc2ccc3nn(-c4ccccc4)nc3c2)cccc1[N+](=O)[O-] | 0.9% |
| CCOC(=O)C(=CNc1cccc(C)c1C)C(=O)OCC | -15.2% |
| CCOc1ccccc1C1C(C(=O)OC)=C(C)N(C)C(C)=C1C(=O)OC | -9.1% |
| COc1ccccc1Cc1noc(-c2ccc(C)cc2)n1 | -5.3% |
| NC(=O)c1c(NC(=O)c2cccs2)sc2c1CCCC2 | 8.9% |
| CC(=O)Oc1ccc(NC(=O)CC2SC(N)=NC2=O)cc1 (stereo unspecified) | 6.3% |
| Cc1ccc(C2Nc3ccccc3NC3=C2C(=O)CC(c2ccccc2)C3)s1 (stereo unspecified) | 7.3% |

| Structure (SMILES) | displacement |
| --- | --- |
| O=C(N/C(=C\c1ccc(Br)cc1)C(=O)N1CCCCCC1)c1cccs1 | 3.9% |
| COc1ccc(NC(=O)NC(c2ccccc2)c2ccccc2)cc1OC | -11.5% |
| Oc1ccc(Br)cc1CN1CCN(CC2CC3C=CC2C3)CC1 (stereo unspecified) | 6.8% |
| CCOc1cc(/C=C(\C#N)c2nc3ccccc3[nH]2)cc(I)c1OC | 1.8% |
| COc1cc(NS(=O)(=O)c2ccccc2)cc(OC)c1 | 21.8% |
| Oc1ccc(Br)cc1CN1CCN(Cc2cccnc2)CC1 | -6.7% |
| CCOc1cc(C2Nc3ccccc3NC3=C2C(=O)CC(c2ccc(OC)c(OC)c2)C3)cc([N+](=O)[O-])c1O (stereo unspecified) | -0.9% |
| COc1ccc(NC2CC(=O)N(c3ccc(I)cc3)C2=O)cc1 (stereo unspecified) | -3.4% |
| NC(=O)NC(c1ccccc1)c1ccc(F)cc1 (stereo unspecified) | 9.3% |
| CCCOc1ccc(C(=O)CCc2ccccc2)cc1OCCC | 10.6% |
| CC1(c2ccc([N+](=O)[O-])cc2)CC1(Br)Br (stereo unspecified) | 6.1% |
| C(=N/N1CCN(c2ccccc2)CC1)/c1ccncc1 | -4.6% |
| Cc1c(C(=O)NCCC(C)C)cccc1[N+](=O)[O-] | 4.7% |
| COC(=O)C1=NN(C(=O)c2cccc([N+](=O)[O-])c2)C(O)(c2ccccc2)C1 (stereo unspecified) | -13.3% |
| N#C/C(=C/c1cc2c(cc1[N+](=O)[O-])OCO2)C(=O)Nc1ccc(F)cc1 | -0.4% |
| COc1ccc(CCNC(=O)C(=O)NCc2ccco2)cc1 | 8.6% |
| O=C(Nc1ccc(Cc2ccc(NC(=O)c3cccnc3)cc2)cc1)c1cccnc1 | 4.5% |
| CN1CCN(C(=O)c2ccccc2NC(=O)c2cccs2)CC1 | 3% |
| COC(=O)c1cccc(NC(=O)CC(=O)c2ccccc2)c1 | -21.1% |
| COc1cccc(N2C(=O)CC(N3CCN(C/C=C/c4ccccc4)CC3)C2=O)c1 (stereo unspecified) | 0.3% |
| CC(C)=C1C2CCC1C(C(=O)NCc1ccccc1)C2C(=O)O (stereo unspecified) | 6.9% |
| Cc1ccc(N=C2NC(=O)/C(=C/c3cccc(O)c3)S2)cc1Cl | -8.6% |
| CCCOC(=O)c1ccc(NC(=S)NC(=O)COc2ccccc2)cc1 | -2.7% |
| CCOc1ccc(N2C(=O)/C(=C\c3cccc(OC)c3OC)C(C(=O)OC)=C2C)cc1 | -10.1% |

| Structure (SMILES) | displacement |
| --- | --- |
| OCCNCCOc1ccc(Br)cc1 | 13.4% |
| CC(=O)Oc1cccc(C(=O)Nc2ccc(OCC(=O)O)cc2)c1 | -3% |
| O=C1NC(=O)N(c2ccc3c(c2)OCO3)C(=O)/C1=C/c1ccc(Sc2ccccc2)o1 | -3.9% |
| Cc1ccc(NC(=O)c2c(-c3c(F)cccc3Cl)noc2C)cc1 | 5.7% |
| Cc1ccc(OCC(=O)Nc2cccc(Cl)c2C)c(Br)c1 | -7% |
| O=C(NCc1ccccc1)c1nn2c(c1Br)NC(c1cccs1)CC2C(F)(F)F (stereo unspecified) | -1.2% |
| NC(=O)c1c(NC(=O)c2ccccc2F)sc2c1CCC2 | 4.4% |
| CC(=O)c1ccc(NC(=S)NC(NC(=O)c2ccccc2Cl)C(Cl)(Cl)Cl)cc1 (stereo unspecified) | -3.8% |
| CCOC(=O)c1c(NC=O)sc2c1CCC/C2=N\O | 148% |
| O=C(O)CC(NC(=O)c1ccc(Cl)cc1)c1ccccc1 (stereo unspecified) | 9% |
| O=C(CSc1ccccn1)Nc1ccc(F)cc1 | -11.4% |
| Nc1c(NCCN2CCCC2)c2ccccc2oc1=O | -3.6% |
| Cc1cc(C)cc(NC2=C(Cl)C(=O)N(c3cccc(Cl)c3)C2=O)c1 | 7% |
| c1ccc(CCCN2CCN(Cc3ccncc3)CC2)cc1 | -9.7% |
| CC(C)(C)C(=O)/C=C(N)\C=C\c1ccccc1 | 8.9% |
| CC(C)(C)c1cc(C(=O)N/N=C/c2ccc(Br)cc2)n[nH]1 | -2% |
| O=C1OC(c2ccc(Cl)cc2)=C/C1=C/c1ccc(-c2ccccc2[N+](=O)[O-])o1 | -34% |
| O=C(CSc1nc2ccccc2s1)OCC(=O)c1cccc([N+](=O)[O-])c1 | -14.1% |
| COC(=O)c1ccc(NC(=O)CC(c2ccccc2)c2ccccc2)cc1 | -0.2% |
| O=C(O)Cc1ccc(OCCCCOc2ccc(CC(=O)O)cc2)cc1 | -8.4% |
| Cc1ccccc1N=Cc1c(O)n(-c2ccccc2Cl)c(=O)[nH]c1=O | -8.2% |
| Cc1ccnc(NC(=O)c2cc3ccccc3o2)c1 | -0.4% |
| CCc1ccc(C(=O)CC2(O)C(=O)Nc3ccccc32)cc1 (stereo unspecified) | 12.9% |
